Source: PubChem BioAssay AID493208 (National Center for Advancing Translational Sciences (NCATS), 2011)
Screen size: about 44,000 compounds; about 340 (0.77%) were called active. About 5% were inconclusive and are not listed. The call rests on the fitted dose curve; in most records, active means well fitted inhibition curve with a large enough effect; inconclusive means small, poorly fitted or top-dose-only effect; inactive means flat fitted curve, though single readings scatter. The list shows a part of the results.

Test: Acumen qHTS Assay for Inhibitors of the mTORC1 Signaling Pathway in MEF (Tsc2-/-, p53-/-) Cells: Sytravon;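 further: plate controls were DMSO for no effect and rapamycin for full effect; nearly all actives have a fitted effect of over 50% in size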
Details: phospho-rpS6 immunofluorescence/PI, 24 h; series mostly up to 38.3 µM; activity change, negative = inhibition: at the top concentration
How it was run: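 Tsc2-/-, p53-/- MEFs (empty-vector stable line) in DMEM + 10% FBS were treated with compounds 24 h at 37 degree Celsius, fixed, and immunostained for phospho-rpS6 (Alexa-488) with propidium iodide counterstain. Laser-scanning cytometry gave % positive cells, normalized against 7.5 nM rapamycin and DMSO.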

Activity change, negative = inhibition, inactive:
O=C(OCc1cc(=O)n2nc(-c3cccs3)sc2n1)c1cccc(F)c1 -6.47%
COCCCNC(=O)c1ccc(Cn2c(SCc3ccc(F)cc3)nc3cccnc32)cc1 -6.5%
Cc1ccc(S(=O)(=O)c2nnn3c2nc(NC2CCCCCC2)c2sccc23)cc1C -8.96%
CC(C)c1nn2c(=O)cc(COC(=O)C3CCCCC3)nc2s1 -3.65%
CCCOc1cccc(C2c3c(oc4ccc(F)cc4c3=O)C(=O)N2CCCN2CCOCC2)c1 (stereo unspecified) -9.31%
Cc1ccc(CN(Cc2ccco2)C(=O)c2ccccc2Br)o1 -8.64%
CCCOc1ccc(-c2nonc2NC(=O)c2ccco2)cc1OCCC -8.04%
CC1CCN(C(=O)c2cc3c(=O)n(C)c4cc(Cl)ccc4c3s2)CC1 -8.31%
Cc1nc(-c2ccc(S(=O)(=O)N3CCN(c4cccc(C(F)(F)F)c4)CC3)cc2)co1 -1.27%
Cc1cc(Br)cc(C)c1NC(=O)c1sc2ncn(Cc3cccc(F)c3)c(=O)c2c1C -6.56%
CCNC(=O)c1ccc(C)c(-n2c(C)nc3cccnc32)c1 -8.81%
Cc1ccc(NC(=O)Cn2c(=O)c3ccc(Cl)cc3n3nncc23)cc1 -16.4%
COc1cccc(-c2csc(-c3c(N)c(C(=O)c4ccc5c(c4)OCO5)n4ccccc34)n2)c1 0.158%
CCOc1ccc(C2C(C(=O)Nc3ccccc3)=C(C)Nc3nc(-c4ccccc4)nn32)cc1OC (stereo unspecified) -2.14%
O=C(Cn1c(-c2cccs2)cc2ccccc21)N1CCN(c2ccc(Cl)cc2)CC1 -1.61%
COc1ccc(-c2cn3c(n2)sc2cc(C(=O)NCCC4=CCCCC4)ccc23)cc1 4.67%
COc1ccc(OC)c(NC(=O)C(C)n2c(=O)cc(C)c3c(C)nn(-c4ccccc4)c32)c1 (stereo unspecified) 1.01%
O=c1c2cnn(-c3ccc(F)cc3)c2ncn1Cc1ccccc1Cl 1.28%
Cc1cc(C)n(CCc2nc3c4ccccc4nc(SCc4ccc(F)cc4)n3n2)n1 0.942%
Cc1ccc(CNC(=O)c2c[nH]c3ccc(S(=O)(=O)N4CCOCC4)cc3c2=O)cc1 -10.9%
Cc1ccc(Cc2cnc(NC(=O)c3ccc4c(c3)CC(c3ccccc3)OC4=O)s2)cc1 (stereo unspecified) -3.49%
O=C(NC1CC(=O)N(c2ccc(F)cc2)C1)C1CCCC1 (stereo unspecified) 3.41%
Cc1c(C(=O)Nc2ccc(F)cc2F)oc2c1-c1nn(Cc3c(F)cccc3Cl)cc1CC2 -0.919%
CC(=O)c1ccc(S(=O)(=O)Nc2ccc(-c3cn4c(C)csc4n3)cc2)cc1 4.25%
COc1ccc(C)cc1NC(c1nnc(-c2ccccc2)o1)c1ccc(F)cc1Cl (stereo unspecified) 0.577%
CCOC(=O)c1c(NC(=O)c2ccc(C)cc2)sc2c1CCCCC2 1.97%
N#Cc1ccccc1NC(=O)CSc1nc(-c2ccccc2)cc(C(F)(F)F)c1C#N -10.1%
CCc1ccc(N2CC(c3nnc(NC(=O)c4ccco4)s3)CC2=O)cc1 (stereo unspecified) -4.13%
COc1cc(Cl)c(C)cc1NC(=O)c1cc(S(=O)(=O)N2CCCC2)ccc1F 8.68%
Cc1ccc(Nc2nc(-c3ccccc3)nc3ccccc23)cc1 0.808%
Cc1ccc(-n2cnc3cc(C(=O)NCCC4=CCCCC4)ccc32)c(C)c1 5.09%
CCOC(=O)c1c(NC(=O)/C(C#N)=C/c2ccc(OC)cc2)sc2c1CCC2 6.44%
COc1ccc(C(=O)N2CC(=O)Nc3ccc(Br)cc3C2c2ccc(F)cc2)cc1OC (stereo unspecified) 0.505%
Cc1cccc(C)c1OCC(=O)N(Cc1ccccc1F)C1CCS(=O)(=O)C1 (stereo unspecified) -16.3%
CCc1ccc(NC(=O)c2sc(-n3nc(C)c(CCC(C)C)c3C)nc2C)cc1 -6.12%
COc1ccc(NC(=O)c2ccc3oc(=O)c(S(=O)(=O)c4ccc(F)cc4)cc3c2)cc1OC 1.24%
CCOc1ccccc1NC(=O)c1ccc2c(c1)CCN2S(C)(=O)=O -3.38%
COc1cc(C2c3c(-c4cc(C)ccc4O)n[nH]c3C(=O)N2Cc2cccnc2)cc(OC)c1OC (stereo unspecified) -0.431%
CCn1cc2nc(SCC(=O)Nc3cc(OC)ccc3OC)n(Cc3ccc(Cl)cc3)c(=O)c2n1 -17.5%
O=C(Nc1ccc(OC(F)(F)F)cc1)c1cc2c(=O)n3ccccc3nc2s1 -8.52%
CCS(=O)(=O)N1CCc2cc(C(=O)Nc3cc([N+](=O)[O-])ccc3C)ccc21 -2.36%
O=C(CCn1c(=O)c2cccn2c2cccnc21)N1CCN(c2ccc(F)cc2)CC1 0.316%
COc1ccccc1CCNC(=O)Cn1ccc2cc(S(=O)(=O)N3CCCCC3)ccc21 -17.5%
CCCC(=O)Nc1nnc(SCc2cc(=O)n3ccccc3n2)s1 0%
COc1ccc(C(=O)Nc2ccc3nc(SCC(=O)N4CCCC4)sc3c2)cc1 -10.3%
O=C(NC1CCCCC1)c1ccc2c(c1)N(Cc1ccccc1F)C(=O)c1ccccc1S2 -0.905%
Cn1c(=O)c(=O)n(C)c2cc(S(=O)(=O)N3CCCC3C(=O)Nc3cccc(F)c3)ccc21 (stereo unspecified) 2.6%
CCN(CCN(C)C)C(=O)Cn1ncc2c([nH]c3ccc(C)cc32)c1=O 1.95%
Cc1ccc(CNC(=O)C2CCN(Cc3nc(-c4ccccc4C)oc3C)CC2)cc1 1.43%
Cc1ccn2c(Nc3ccccc3C)c(-c3ccncc3)nc2c1 4.77%
Cc1cccc(NC(=O)CSc2nnc(CNC(=O)c3cccc(C)c3)n2-c2ccccc2)c1 -14.2%
CCCCn1c(CN2CCN(c3ccc(OC)cc3)CC2)nc2c1c(=O)[nH]c(=O)n2C -3.11%
COc1ccc(-c2noc(CN(C(=O)c3ccccc3Cl)C(C)C)n2)cc1 -11%
Cc1ccccc1Cn1c(-c2cccs2)nc2ccccc21 -0.771%
Cc1ccc2nc(CSc3nnc(NC(=O)CC(C)C)s3)cc(=O)n2c1 -12.9%
Cc1ccc(Cn2c(CN3CCC(C(=O)NCc4cccnc4)CC3)cc3ccccc32)cc1 -0.121%
CCOc1ccc(CNC(=O)CCC(=O)N2Cc3ccccc3Oc3ncccc32)cc1 -7.17%
COc1ccc(OC)c(NC(=O)CSc2c3c(nc4cc(Cl)ccc24)CCCC3)c1 3.21%
NC(=O)CSc1nc2cc3c(cc2c(=O)n1CCCCCC(=O)NCc1ccc2c(c1)OCO2)OCO3 -9.21%
CC(=O)c1cccc(NC(=O)CCS(=O)(=O)c2ccc3c(c2)n(C)c(=O)c(=O)n3C)c1 -12.7%
O=C(Nc1ccccc1C(F)(F)F)C1(S(=O)(=O)c2ccc(Cl)cc2)CC1 3.59%
CN1CC(=O)N(CC(=O)Nc2cccc(C#N)c2)c2ccccc2C1=O 5.53%
COc1ccc(OC)c(NC(=O)C2CCCN(S(=O)(=O)c3ccc4[nH]c(=O)ccc4c3)C2)c1 (stereo unspecified) -5.64%
COc1ccc(-c2cn3c(n2)sc2cc(C(=O)NCC(C)c4ccccc4)ccc23)cc1 (stereo unspecified) -3.96%
Cc1ccc(CCNC(=O)c2cnc3c(C)cccn3c2=O)cc1 0.762%
Cc1c(Cl)cccc1NC(=O)Nc1nnc(N(C)C2CCCCC2)s1 -6.49%
CCCCCCNC(=O)CCc1c(C)nc2nc(-c3cc(OC)cc(OC)c3)nn2c1C -3.12%
Cc1ccc(C(=O)c2cn(Cc3cc(C)ccc3C)c3nc(C)ccc3c2=O)cc1 -29.6%
CCOCCCNC(=O)C(NC(=O)C1CCC(C)CC1)C(C)C (stereo unspecified) 1.21%
CN(C1CCCCC1)S(=O)(=O)c1ccc2c(c1)c(=O)c(C(=O)N1CCN(c3ccc(F)cc3)CC1)cn2C 0.133%
CC(C)c1cc(C(=O)NCc2ccc(F)cc2)no1 -9.03%
CCS(=O)(=O)n1nc(-c2ccco2)nc1NCc1ccc(C(C)C)cc1 -1.68%
CCc1ccccc1NC(=O)c1nn(-c2ccc(C)cc2)c(=O)c2c1c1ccccc1n2C -23.2%
CC(=O)Nc1ccc(NC(=O)C(NC(=O)C2CCC(C)CC2)C(C)C)cc1 (stereo unspecified) 4.31%
COc1ccc(C)cc1NC(=O)C1CCC(CNS(=O)(=O)c2ccc3c(c2)CCCC(=O)N3)CC1 (stereo unspecified) -24.5%
Cc1ccc(-n2cnc3cc(C(=O)NC4CCCCCC4)ccc32)c(C)c1 -25.8%
CCc1ccc(Cn2nnc3c(=O)[nH]c(C4CCCN(C(=O)c5cccc(Cl)c5)C4)nc32)cc1 (stereo unspecified) -6.23%
O=C(Nc1ccc(F)cc1)c1ccc(CN2CC(=O)N3CCCCC3C2=O)cc1 (stereo unspecified) -1.42%
Cc1cc(C)cc(NC(=O)Cn2nc(N3CCN(c4ccccc4)CC3)ccc2=O)c1 -15.8%
CC(=O)c1c(C)n(S(=O)(=O)c2ccc(Cl)cc2)c2ccc(NS(=O)(=O)c3ccc(Cl)cc3)cc12 -4.46%
CC(C)c1ccc(OCC(=O)Nc2cc(-c3ccccc3)no2)cc1 -8.18%
COc1ccc(S(=O)(=O)NCCc2sc(-c3cccnc3)nc2C)cc1OC -0.534%
COc1cc(CN(C(=O)c2ccccc2Br)c2ccccn2)cc(OC)c1OC -0.445%
CCc1ccc(NC(=O)c2cccc(N3CCCS3(=O)=O)c2)cc1 -3.64%
Cc1ccc(NC(=O)CN2C(=O)C(c3ccc(C)cc3)=NC23CCCCCC3)cc1 -0.669%
Cc1ccc(C)c(N2CCN(C(=O)CCS(=O)(=O)c3ccc4c(c3)oc(=O)n4C)CC2)c1 -16.9%
COc1ccc2c(c1)c(=O)c(S(=O)(=O)c1ccc(Cl)cc1)cn2Cc1cc(C)ccc1C -9.5%
CCOc1cc2c(cc1OCC)C(CC(=O)OC)N(C(=O)Nc1cc(OC)ccc1OC)CC2 (stereo unspecified) 3.12%
CCN(CC)C(=O)c1sc2c(c1C)c(=O)n(CCc1ccccc1)c(=O)n2Cc1ccc(C)cc1 -7.05%
CCN1CCSc2ccc(C(=O)NCc3ccc(F)cc3)cc21 -7.68%
Cc1ccc(CNC(=O)CCSCc2cnn(-c3ccccc3)c2-n2cccc2)cc1 -0.621%
COc1ccc(NCc2cccn2-c2nnc(N3CCOCC3)s2)cc1OC 5.94%
COc1ccc(CNC(=O)Cn2ncc3c(=O)oc4ccccc4c32)c(OC)c1 -7.78%
Cc1csc2nc(COC(=O)c3cccc(NC(=O)COc4ccccc4Cl)c3)cc(=O)n12 0%
CCc1cccc(NC(=O)Cc2nc(-c3ccc(OC)cc3)no2)c1 -7.86%
COCCCNC(=O)c1nn(C)c2c1CS(=O)(=O)c1ccccc1-2 -18.4%
